± gives the standard deviation of the averaged measurements. Growth of baker's yeast expressing single-residue variants of Pneumocystis jirovecii dihydrofolate reductase in 8.8 or 44 µM methotrexate (about 75% and 90% inhibition of the wild type). Selection coefficient per generation; 0 = like wild type, above 0 = less sensitive, below 0 = more sensitive or loss of function. No active / inactive call per row; the paper calls resistant above 0.220 (8.8 µM) or 0.243 (44 µM) together with a significance test. At 44 µM about 15% of codons end with one read or none, so the lowest values are floors (replicate rank correlation 0.74; 0.94 at 8.8 µM).
B1: UniProt A0EPZ9; numbered along this chain (parent)
chain: MDWQKSLTLIVALTLSRGIGLKNDLPWKLKSDMMFFSRVTSGLLVTRSTGQMNVVLMGRKTWESLPAHSRPLKNRINVVISRQEVLDLGGGAYHARSLDDALALLSQIYDSTSKIQLNRVFVIGGGELCKAAMEHSRLNRIIATVIHNEVDCDVFFPIDFRSSQSCLPWRKQDHSVLEAWVGSKVPQGKINENGFIYEFEMWIRDI

Variants of: B1
Experiment: selection coefficient against synonymous wild-type codons (log2 per generation); higher = faster growth than wild type
Settings: with Saccharomyces cerevisiae carrying the variant on a plasmid
Method: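 Pooled growth of yeast carrying single-residue variants of P. jirovecii dihydrofolate reductase (own DFR1 gene intact), two passages at 30 °C, three cultures, sequenced before and after. Codons with under 15 starting reads are left out; codons of one change are averaged.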

| Variant | selection coefficient against synonymous wild-type codons (log2) (methotrexate 8.8 µM) | selection coefficient against synonymous wild-type codons (log2) (methotrexate 44 µM) |
| --- | --- | --- |
| E178Y | -0.561 ± 0.0074 | -0.326 ± 0.051 |
| E178W | -0.536 ± 0.12 | -0.211 ± 0.029 |
| E178R | -0.155 ± 0.077 | -0.234 ± 0.14 |
| E178N | -0.118 ± 0.075 | -0.206 ± 0.17 |
| E178Q | -0.0855 ± 0.046 | -0.317 ± 0.033 |
| E178V | -0.45 ± 0.11 | -0.363 ± 0.086 |
| E178P | -0.383 ± 0.074 | -0.286 ± 0.13 |
| E178T | -0.161 ± 0.12 | -0.214 ± 0.15 |
| E178S | -0.137 ± 0.059 | -0.23 ± 0.15 |
| P186R | -0.114 ± 0.043 | -0.0993 ± 0.28 |
| P186M | -0.356 ± 0.071 | -0.328 ± 0.017 |
| P186L | -0.381 ± 0.062 | -0.33 ± 0.11 |
| P186W | -0.539 ± 0.12 | -0.365 ± 0.1 |
| P186F | -0.559 ± 0.18 | -0.376 ± 0.038 |
| P186Q | -0.0996 ± 0.054 | -0.227 ± 0.12 |
| P186E | -0.125 ± 0.07 | -0.264 ± 0.21 |
| P186A | -0.212 ± 0.12 | -0.255 ± 0.13 |
| P186Y | -0.496 ± 0.16 | -0.239 ± 0.021 |
| P186G | -0.226 ± 0.059 | -0.293 ± 0.14 |
| P186S | -0.189 ± 0.066 | -0.293 ± 0.12 |
| P186K | -0.0229 ± 0.015 | -0.0277 ± 0.026 |
| P186N | -0.171 ± 0.082 | -0.0854 ± 0.18 |
| P186T | -0.197 ± 0.11 | -0.269 ± 0.13 |

| Variant | selection coefficient against synonymous wild-type codons (log2) (methotrexate 8.8 µM) | selection coefficient against synonymous wild-type codons (log2) (methotrexate 44 µM) |
| --- | --- | --- |
| P186H | -0.213 ± 0.21 | -0.185 ± 0.16 |
| P186D | -0.185 ± 0.12 | -0.109 ± 0.32 |
| P186C | -0.292 ± 0.1 | -0.223 ± 0.15 |
| P186I | -0.351 ± 0.15 | -0.334 ± 0.021 |
| P186V | -0.337 ± 0.036 | -0.356 ± 0.14 |
| K189V | -0.109 ± 0.018 | -0.119 ± 0.097 |
| K189A | -0.0978 ± 0.028 | -0.108 ± 0.11 |
| K189R | -0.124 ± 0.045 | -0.141 ± 0.081 |
| K189M | -0.0993 ± 0.025 | -0.107 ± 0.14 |
| K189C | -0.0426 ± 0.15 | -0.263 ± 0.05 |
| K189S | -0.105 ± 0.039 | -0.103 ± 0.073 |
| K189Q | -0.0594 ± 0.046 | -0.12 ± 0.036 |
| K189L | -0.108 ± 0.069 | -0.0761 ± 0.078 |
| K189H | -0.131 ± 0.02 | -0.198 ± 0.058 |
| K189E | -0.00421 ± 0.026 | 0.0016 ± 0.068 |
| K189T | -0.0605 ± 0.094 | -0.0482 ± 0.097 |
| K189G | -0.0924 ± 0.029 | -0.147 ± 0.12 |
| K189P | 0.00852 ± 0.052 | -0.0149 ± 0.099 |
| K189D | 0.00138 ± 0.044 | -0.13 ± 0.08 |
| K189W | -0.26 ± 0.016 | -0.263 ± 0.0033 |
| K184V | -0.194 ± 0.069 | -0.136 ± 0.14 |
| K184E | -0.0148 ± 0.023 | -0.0139 ± 0.043 |
| K184T | -0.0697 ± 0.074 | -0.0911 ± 0.061 |

| Variant | selection coefficient against synonymous wild-type codons (log2) (methotrexate 8.8 µM) | selection coefficient against synonymous wild-type codons (log2) (methotrexate 44 µM) |
| --- | --- | --- |
| K184W | -0.32 ± 0.049 | -0.388 ± 0.06 |
| K184Q | -0.0879 ± 0.038 | -0.124 ± 0.035 |
| K184F | -0.338 ± 0.079 | -0.416 ± 0.048 |
| K184L | -0.179 ± 0.048 | -0.305 ± 0.11 |
| K184I | -0.222 ± 0.053 | -0.326 ± 0.027 |
| K184C | -0.145 ± 0.065 | -0.253 ± 0.21 |
| K184G | -0.102 ± 0.025 | -0.243 ± 0.14 |
| K184Y | -0.189 ± 0.058 | -0.184 ± 0.029 |
| K184R | -0.132 ± 0.026 | -0.116 ± 0.077 |
| K184S | -0.115 ± 0.03 | -0.139 ± 0.12 |
| K184A | -0.0829 ± 0.041 | -0.205 ± 0.075 |
| K184P | 0.018 ± 0.021 | -0.034 ± 0.081 |
| K184M | -0.172 ± 0.043 | -0.113 ± 0.034 |
| K184H | -0.125 ± 0.021 | -0.0369 ± 0.049 |
| K184N | -0.0247 ± 0.0083 | -0.0633 ± 0.18 |
| K184D | -0.00636 ± 0.032 | -0.123 ± 0.054 |
| N191G | -0.105 ± 0.047 | -0.147 ± 0.068 |
| N191A | -0.0302 ± 0.039 | -0.0921 ± 0.13 |
| N191C | -0.087 ± 0.041 | -0.111 ± 0.12 |
| N191D | 0.0297 ± 0.023 | 0.0227 ± 0.0077 |
| N191E | 0.0715 ± 0.027 | 0.0444 ± 0.079 |
| N191F | -0.157 ± 0.0089 | -0.194 ± 0.21 |
| Q187G | -0.0836 ± 0.045 | -0.048 ± 0.28 |

| Variant | selection coefficient against synonymous wild-type codons (log2) (methotrexate 8.8 µM) | selection coefficient against synonymous wild-type codons (log2) (methotrexate 44 µM) |
| --- | --- | --- |
| Q187R | -0.0735 ± 0.045 | -0.102 ± 0.083 |
| Q187Y | -0.188 ± 0.033 | -0.274 ± 0.058 |
| Q187V | -0.084 ± 0.043 | -0.2 ± 0.14 |
| Q187I | -0.0653 ± 0.082 | -0.171 ± 0.081 |
| Q187K | -0.0105 ± 0.058 | -0.0435 ± 0.13 |
| Q187E | 0.00546 ± 0.028 | 0.0177 ± 0.051 |
| Q187L | -0.12 ± 0.047 | -0.133 ± 0.13 |
| Q187T | -0.0551 ± 0.069 | -0.106 ± 0.15 |
| Q187F | -0.242 ± 0.13 | -0.199 ± 0.23 |
| Q187N | -0.074 ± 0.058 | -0.0257 ± 0.058 |
| Q187H | -0.0514 ± 0.036 | -0.0214 ± 0.074 |
| Q187D | -0.0313 ± 0.0079 | -0.174 ± 0.18 |
| Q187P | -0.0819 ± 0.046 | -0.127 ± 0.12 |
| Q187M | -0.0899 ± 0.077 | -0.178 ± 0.16 |
| Q187A | -0.072 ± 0.048 | -0.0392 ± 0.081 |
| Q187S | -0.0263 ± 0.042 | -0.148 ± 0.074 |
| Q187W | -0.313 ± 0.028 | -0.0628 ± 0.15 |
| Q187C | -0.0787 ± 0.049 | -0.0648 ± 0.037 |
| G182E | -0.147 ± 0.046 | -0.115 ± 0.049 |
| G182Y | -0.434 ± 0.097 | -0.138 ± 0.019 |
| G182L | -0.409 ± 0.096 | -0.388 ± 0.058 |
| G182H | -0.235 ± 0.12 | -0.305 ± 0.044 |
| G182F | -0.416 ± 0.036 | -0.4817 ± 0.0045 |

| Variant | selection coefficient against synonymous wild-type codons (log2) (methotrexate 8.8 µM) | selection coefficient against synonymous wild-type codons (log2) (methotrexate 44 µM) |
| --- | --- | --- |
| G182R | -0.17 ± 0.068 | -0.179 ± 0.28 |
| G182P | -0.169 ± 0.063 | -0.172 ± 0.11 |
| G182A | -0.184 ± 0.061 | -0.109 ± 0.14 |
| G182D | -0.00144 ± 0.011 | -0.0255 ± 0.059 |
| G182T | -0.233 ± 0.092 | -0.326 ± 0.057 |
| G182K | -0.0959 ± 0.025 | -0.11 ± 0.031 |
| G182V | -0.369 ± 0.042 | -0.452 ± 0.089 |
| G182N | -0.0714 ± 0.12 | -0.248 ± 0.074 |
| G182S | -0.18 ± 0.046 | -0.195 ± 0.11 |
| G182M | -0.273 ± 0.017 | -0.313 ± 0.17 |
| G182C | -0.262 ± 0.078 | -0.333 ± 0.14 |
| G182Q | -0.0319 ± 0.036 | 0.0988 ± 0.11 |
| G182W | -0.46 ± 0.096 | -0.301 ± 0.42 |
| G182I | -0.494 ± 0.16 | -0.27 ± 0.038 |
| V185G | -0.261 ± 0.09 | -0.223 ± 0.14 |
| V185H | -0.338 ± 0.081 | -0.148 ± 0.049 |
| V185C | -0.0593 ± 0.044 | -0.177 ± 0.14 |
| V185F | -0.147 ± 0.082 | -0.104 ± 0.12 |
| V185Q | -0.209 ± 0.063 | -0.229 ± 0.026 |
| V185K | -0.123 ± 0.066 | -0.226 ± 0.12 |
| V185I | -0.0931 ± 0.034 | -0.144 ± 0.044 |
| V185T | -0.122 ± 0.11 | -0.172 ± 0.071 |
| V185D | -0.345 ± 0.034 | -0.183 ± 0.098 |

— the supplement of paper PMC11125491
